“And” between values parts separate entries of the source, which are not always exact repeats. Equal values may be shown once. The campaign covered roughly 270,000 compounds. About 620 (0.23%) were called active. Inconclusive means that the source gave no clear call. Such entries were picked first, then a sample of the others. The call rests on the fitted dose curve; in most records, active means well fitted inhibition curve with a large enough effect in the polarisation, with a control signal flat (not every such curve was filed as active); inconclusive means small, poorly fitted or top-dose-only effect, or effect the other way, or a change in a side signal; inactive means no such curve, though single readings can be large or run the other way; the % refers to the polarisation. A potency beside an inconclusive call is a rough fit, not a confirmed value. A note “side channel” means that the fit belongs to a control or component signal, not to the main read-out.
These compounds were tested against Menin (Homo sapiens) (UniProt O00255) (assay: qHTS Assay for Inhibitors Targeting the Menin-MLL Interaction in MLL Related Leukemias: Competition With Texas Red Labeled MLL-derived Mutant Peptide). Conditions: fluorescence polarization; series mostly up to 61.6 µM.
Chain of UniProt O00255 (O00255 whole entry, looked up): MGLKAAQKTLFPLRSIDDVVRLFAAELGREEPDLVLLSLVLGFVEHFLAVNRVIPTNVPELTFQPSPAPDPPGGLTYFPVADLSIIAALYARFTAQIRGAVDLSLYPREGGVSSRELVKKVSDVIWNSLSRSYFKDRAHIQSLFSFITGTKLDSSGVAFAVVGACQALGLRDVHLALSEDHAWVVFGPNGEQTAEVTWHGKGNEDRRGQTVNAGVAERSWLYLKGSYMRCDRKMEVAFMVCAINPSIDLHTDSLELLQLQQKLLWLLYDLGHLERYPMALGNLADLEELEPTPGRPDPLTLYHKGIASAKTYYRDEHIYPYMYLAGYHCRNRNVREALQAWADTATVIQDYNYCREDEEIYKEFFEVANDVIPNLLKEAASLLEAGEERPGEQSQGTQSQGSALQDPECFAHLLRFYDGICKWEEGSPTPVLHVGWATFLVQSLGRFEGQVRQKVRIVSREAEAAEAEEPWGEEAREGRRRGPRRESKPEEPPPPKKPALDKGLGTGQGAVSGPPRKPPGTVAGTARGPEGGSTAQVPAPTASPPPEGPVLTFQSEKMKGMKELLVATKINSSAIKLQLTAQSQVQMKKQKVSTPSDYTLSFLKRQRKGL
Potency means the concentration at half of the fitted maximal effect; tags describe the fitted curve by direction and shape or compound fluorescence and quenching.

Row | SMILES | Potency
1 | NNC(=O)c1sccc1OCc1ccc(F)cc1 | inconclusive: 7.94 µM [fluorescent, side channel, full curve, poor fit]
2 | CCOc1ccc2[nH]c(=O)c(CN(Cc3ccccc3)C(=O)N3CCCC3)cc2c1 | inactive
3 | Cc1ccc(-c2cn(S(=O)(=O)c3cccc([N+](=O)[O-])c3)nc2N)cc1 | inconclusive: 10 µM [quencher, side channel, partial curve]
4 | Cc1[nH]c(=O)[nH]c(=O)c1S(=O)(=O)N1CCC(C(=O)NC(C)c2ccccc2)CC1 (stereo unspecified) | inactive
5 | COc1cccc(OC)c1OCC(O)CN1CCN(c2ccc(F)cc2)CC1 (stereo unspecified) | inconclusive: 28.2 µM [fluorescent, side channel, single point]
6 | N/C(Cc1cccc2ccccc12)=N\OC(=O)c1ccc(Br)o1 | inconclusive: 35.5 µM [quencher, side channel, single point]
7 | CCN(CC)c1ccc(C=NCCNS(=O)(=O)c2ccc(C)cc2)cc1 | inconclusive: 10 µM [inhibitor, partial curve]
8 | NS(=O)(=O)c1ccc(NC(=O)C(Sc2ccccc2)c2ccccc2)cc1 (stereo unspecified) | inconclusive: 20 µM [quencher, single point]
9 | O=C(COC(=O)c1ccccc1NS(=O)(=O)c1cccs1)NC1CCCCC1 | inactive
10 | Cc1cccc(NC(=S)N(CCN(C)C)Cc2cc3cc(C)cc(C)c3[nH]c2=O)c1 | inconclusive: 11.2 µM [fluorescent, side channel, partial curve]
11 | CCCCc1ccc(-c2csc(/C(C#N)=C\c3ccc(C)o3)n2)cc1 | inconclusive: 17.8 µM [quencher, side channel, single point]
12 | Cc1ccc(NS(=O)(=O)c2ccc(CCC(=O)NCc3ccccn3)cc2)cc1 | inconclusive: 3.16 µM [inhibitor, full curve]
13 | N#C/C(=C\c1ccc(O)c(O)c1)C(=O)NCCCc1ccccc1 | inconclusive: 12.6 µM [quencher, side channel, partial curve] and inconclusive: 15.8 µM [quencher, side channel, partial curve] and inconclusive: 25.1 µM [quencher, side channel, partial curve]
14 | Cc1ccccc1Nc1c(F)c(F)c(F)c(F)c1C(=O)O | inconclusive: 39.8 µM [quencher, side channel, single point]
15 | CCc1ccc(S(=O)(=O)N/N=C\c2ccc([N+](=O)[O-])o2)cc1 | inactive
16 | O=S(=O)(c1ccccc1)N1CCC(O)(CSc2ccc(Cl)cc2)CC1 | inconclusive: 28.2 µM [quencher, side channel, single point]
17 | O=C(CSc1nc2cc(Cl)ccc2o1)c1cccs1 | inconclusive: 39.8 µM [quencher, side channel, single point]
18 | COc1ccc(N2C(=O)/C(=C/c3ccc([N+](=O)[O-])cc3)N=C2C)cc1 | inconclusive: 39.8 µM [quencher, side channel, single point]

Row | SMILES | Potency
19 | CCCC[n+]1c(-c2ccc(Cl)cc2Cl)csc1Nc1ccccc1 | inconclusive: 25.1 µM [fluorescent, side channel, single point]
20 | CCOC(=O)C(Cc1ccc(NC(=O)/C(=C/c2ccccc2)NC(=O)c2ccccc2)cc1)N1C(=O)c2ccccc2C1=O (stereo unspecified) | inconclusive: 22.4 µM [inhibitor, partial curve]
21 | Cc1c(CC(=O)N[C@@H](C)C(=O)O)c(=O)oc2c(C)c3occ(-c4ccccc4)c3cc12 | inactive
22 | CC(NC(=O)CCNS(=O)(=O)c1ccccc1)c1ccccc1 (stereo unspecified) | inactive
23 | COc1ccc2[nH]c(C(=O)O)c(NS(=O)(=O)c3ccc(OC)c(OC)c3)c2c1 | inconclusive: 22.4 µM [quencher, side channel, partial curve]
24 | O=[N+]([O-])c1cc(S(=O)(=O)Nc2ccccc2)ccc1-n1nnc2ccccc21 | inconclusive: 22.4 µM [quencher, side channel, partial curve]
25 | O=C(COc1ccc(Cl)cc1)Nc1ccc(NC(=O)c2ccco2)cc1 | inconclusive: 28.2 µM [fluorescent, side channel, partial curve]
26 | Nc1c(C(=O)NC2CCCC2)sc2nc(-c3cccs3)ccc12 | inconclusive: 17.8 µM [inhibitor, partial curve]
27 | CC1=NN(C(N)=S)C(=O)C1N=Nc1ccc([N+](=O)[O-])cc1 (stereo unspecified) | inconclusive: 3.16 µM [quencher, side channel, full curve]
28 | CCc1ccc(/C=N/NC(=O)c2c[nH]c3ccccc23)s1 | inconclusive: 39.8 µM [quencher, side channel, single point]
29 | CN(C(=O)c1ccc(-c2nn(C)c(=O)c3ccccc23)cc1)c1ccccc1 | inconclusive: 11.2 µM [fluorescent, side channel, partial curve]
30 | O=C(CC1SCCNC1=O)Nc1cccc(C(F)(F)F)c1 (stereo unspecified) | inconclusive: 20 µM [quencher, side channel, partial curve]
31 | CCOC(=O)Cc1nn[nH]n1 | inactive
32 | CCOC(=O)c1ccc(NC(=O)Nc2ccc(S(N)(=O)=O)cc2)cc1 | inconclusive: 39.8 µM [quencher, side channel, single point]
33 | CC(=O)N(Cc1ccco1)c1nc(C(=O)Nc2ccc(Cl)cc2)c(C)s1 | inconclusive: 25.1 µM [quencher, side channel, single point]
34 | O=C1CSC(c2ccc([N+](=O)[O-])cc2)N1c1ccc(O)cc1 (stereo unspecified) | inconclusive: 0.708 µM [inhibitor, full curve, poor fit]
35 | COc1ccc(S(=O)(=O)c2c(N)n(Cc3ccco3)c3nc4ccccc4nc23)cc1 | inconclusive: 22.4 µM [quencher, side channel, single point]
36 | CN1/C(=C\C(=O)COC(=O)Cn2nnc(-c3ccccc3)n2)C(C)(C)c2ccccc21 | inconclusive: 20 µM [fluorescent, side channel, partial curve]

From PubChem BioAssay AID1768 (National Center for Advancing Translational Sciences (NCATS), 2009)
